Experimental data reported in patent publication US9612243B1, “Methods and compositions for targeted two-dimensional western blot analysis for early cancer detection and cancer diagnosis up to ten years in advance of clinical symptoms of malignant disease” (Mor-NuCo Enterprises, Inc., priority 2016, dated 2017).

Assays:
[1] = target: T1, recombinant ENOX2 (Homo sapiens, UniProt Q16206); assay: 1D Western blot reactivity; type: binding; settings: membranes incubated with scFv for 17 hours, alkaline phosphatase linked S-protein 2 hours
T1 sequence (Q16206 1-610): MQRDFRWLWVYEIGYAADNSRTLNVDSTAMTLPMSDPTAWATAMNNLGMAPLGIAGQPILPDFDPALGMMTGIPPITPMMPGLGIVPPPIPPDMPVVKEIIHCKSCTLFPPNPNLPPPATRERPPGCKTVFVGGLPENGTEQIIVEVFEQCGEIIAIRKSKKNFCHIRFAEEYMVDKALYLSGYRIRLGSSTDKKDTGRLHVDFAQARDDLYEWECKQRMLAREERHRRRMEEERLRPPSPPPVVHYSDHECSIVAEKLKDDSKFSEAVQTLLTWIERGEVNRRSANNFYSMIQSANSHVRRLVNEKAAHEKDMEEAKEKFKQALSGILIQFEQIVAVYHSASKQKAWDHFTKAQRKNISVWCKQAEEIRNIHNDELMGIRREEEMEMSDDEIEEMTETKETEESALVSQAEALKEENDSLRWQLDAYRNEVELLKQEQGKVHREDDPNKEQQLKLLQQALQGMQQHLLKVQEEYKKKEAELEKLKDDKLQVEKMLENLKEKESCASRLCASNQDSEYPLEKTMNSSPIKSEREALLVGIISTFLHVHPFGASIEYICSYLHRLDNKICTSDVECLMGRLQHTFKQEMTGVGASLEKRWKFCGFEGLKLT
Protocol: 1D Western blot analysis of scFvSC. Reactivity of scFv(SC) toward recombinant ENOX2 was analyzed by 1 dimensional western blot. Recombinant ENOX2 was separated by SDS-PAGE and transferred to nitrocellulose membranes. Nitrocellulose membranes were incubated with scFv(SC) for 17 hours and alkaline phosphatase linked S-protein for 2 hours. […] For comparison, scFv(S) was included in the western blot analysis.

[2] = target: T1, recombinant ENOX2; assay: Binding of stored scFv to recombinant ENOX2 (storage stability); type: physicochemical
Protocol: A major factor, however, in determining the efficacy of the scFv is its propensity to aggregate. After only ten days of storage at either −70° C. or 4° C., the binding of the purified scFv to recombinant ENOX2 protein was reduced by more than 90%. After much study, this loss of efficacy was traced solely to protein aggregation. […] Aggregation of the functionalized scFv antibody as determined from light scattering measurements is achieved by storage in 50% glycerol and stored at −70° C., essential ingredients in the overall protocol to achieve the desired level of sensitivity and specificity. Activity is lost rapidly by storage in the absence of glycerol.

[3] = target: T1, recombinant ENOX2; assay: Western blot mixing experiments under non-reducing conditions (cross-linking of ScFV to ENOX2); type: binding; parameters: between the full length ScFV and the 72 kDa full length ENOX2; settings: FIG. 12

B1: scFv(SC): recombinant anti-ENOX2 single chain variable region antibody with Gly/Ser linker containing two cysteines, GST tag, SEQ ID NO:11 (protein, listed as Homo sapiens)
scFv: [about 200 residues omitted]SDLVPRGSPGIPEVKLQESGTEVVKPGASVKLSCKASGYIFTSYDIDWVRQTPEQGLEWIGWIFPGEGSTEYNEKFKGRATLSVDKSSSTAYMELTRLTSEDSAVYFCARGDYYRRYFDLWGQGTTVTVSSGGGGSCGGGSCGGGSENVLTQSPAIMSASPGERVTMTCSASSSIRYIYWYQQKPGSSPRLLIYDTSNVAPGVPFRFSGSGSGTSYSLTINRMEAEDAATYYCQEWSGYPYTFGGGTKLELKA
modifications: GST tag
reactivity toward recombinant ENOX2 [1]: reacted toward recombinant ENOX2 | reduction of binding of purified scFv to recombinant ENOX2 protein ([2]; after only ten days of storage at either −70° C. or 4° C.): more than 90% | activity on storage ([2]; storage in the absence of glycerol): lost rapidly | cross-linking of ScFV with recombinant ENOX2 [3]: disulfide bond formation between the full length ScFV and the 72 kDa full length ENOX2
